The whole screen tested about 110,000 compounds, of which about 230 (0.21%) showed an effect of 50% or more. The list shows a part of the results.
Biological target: DPAP1 (Plasmodium falciparum, UniProt Q8IIJ9)
Assay: primary screen, percent inhibition; read by cleavage of a fluorogenic dipeptide substrate; higher = more effect of the substance
Parameters: species or system P. falciparum D10 trophozoite lysates; single well
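Note: 30 min substrate incubation versus DMSO and 10 µM JCP410 controls.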

Sequence of DPAP1 (Q8IIJ9 whole entry, looked up): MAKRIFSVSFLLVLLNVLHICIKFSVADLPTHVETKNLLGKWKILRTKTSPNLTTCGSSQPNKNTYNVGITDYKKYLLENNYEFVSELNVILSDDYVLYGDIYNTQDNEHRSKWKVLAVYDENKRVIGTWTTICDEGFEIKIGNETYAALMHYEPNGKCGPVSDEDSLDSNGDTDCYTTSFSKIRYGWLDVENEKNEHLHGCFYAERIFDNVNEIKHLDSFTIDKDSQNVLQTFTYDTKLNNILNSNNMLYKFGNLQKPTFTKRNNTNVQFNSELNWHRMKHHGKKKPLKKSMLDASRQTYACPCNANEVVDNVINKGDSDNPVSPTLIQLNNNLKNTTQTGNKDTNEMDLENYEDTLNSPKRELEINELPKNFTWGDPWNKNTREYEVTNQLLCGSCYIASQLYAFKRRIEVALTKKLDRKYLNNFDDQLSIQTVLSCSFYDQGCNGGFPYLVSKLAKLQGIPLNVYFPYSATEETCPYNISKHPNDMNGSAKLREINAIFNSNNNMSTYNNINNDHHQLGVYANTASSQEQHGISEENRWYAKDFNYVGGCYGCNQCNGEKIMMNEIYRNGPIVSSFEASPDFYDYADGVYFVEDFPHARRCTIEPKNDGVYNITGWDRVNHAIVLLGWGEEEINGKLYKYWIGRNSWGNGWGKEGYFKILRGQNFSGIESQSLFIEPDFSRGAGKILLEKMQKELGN

Structure (SMILES)	% Inhibition @ 10 uM [%]
O=C(NC(c1ccccc1)c1ccccc1)C1CCN(S(=O)(=O)c2cccc3nonc23)CC1	-0.668
COc1ccc(-c2csc3ncn(CC(=O)Nc4ccc(C)cc4C)c(=O)c23)cc1OC	-0.661
Cc1ccc(NCc2c3ccccc3c(CNc3ccc(C)cc3Br)c3ccccc23)c(Br)c1	0.98
COc1cc(-c2[nH]nc3c2C(c2cccs2)C(C#N)=C(N)O3)cc(OC)c1OC (centres unmarked)	7.1
Cc1ccc(S(=O)(=O)NCC(Sc2nnc3nc(C)cc(C)n23)c2ccccc2)cc1 (centres unmarked)	-2.05
COc1ccc(N(CC(=O)N2CCOCC2)S(C)(=O)=O)cc1OC	-2.22
O=C(O)CC(CNC(=O)c1cc2cc(Br)ccc2oc1=O)c1ccccc1 (centres unmarked)	-4.04
COCCn1c(C)cc(C(=O)C(=O)Nc2nnc(Cc3ccc(OC)c(OC)c3)s2)c1C	-8.56
CCn1cc(CNC(=O)c2c(-c3c(Cl)cccc3Cl)noc2C)c(C)n1	2.73
COc1ccc(CN2CC(C(=O)NCCCN3CCCC(C)C3)CC2=O)cc1 (centres unmarked)	-0.0542
Cc1ccc(S(=O)(=O)NC(=O)Nc2nc3ccccc3s2)cc1	-6.41
COc1ccccc1-c1csc(C(=O)N[C@@H](CC(C)C)C(=O)NCC#N)c1	-1.41
COc1cccc2c1OC1(CCCCC1)N1N=C(c3ccc(C)o3)CC21 (centres unmarked)	1.88
CC(C)c1ccc(NC(=O)c2cccc(Br)c2)cc1	-0.127
Cc1cc(C)c(C#N)c(SCC(=O)NC(C)C23CC4CC(CC(C4)C2)C3)n1 (centres unmarked)	-4.43
Cc1cc2nc(O)cc(-c3ccccc3)n2n1	-3.1
CCOc1ccc(NC(=O)c2cncc(Br)c2)cc1	4.44
CCCCN(C)CCNC(=O)C1CCN(S(=O)(=O)c2cccc3nsnc23)CC1	-5.22
O=C(O)c1ccccc1SC1CC(=O)N(c2ccc(F)cc2)C1=O (centres unmarked)	-2.07
CC1=NN(c2ccccc2)C(=O)/C1=C1/C(=O)Nc2c1ccc(Cl)c2C	1.15
COc1ccc(NCc2cccc(C(F)(F)F)c2)c(OC)c1	-0.0953
CC1CC(C(F)F)n2nc(C(=O)O)nc2N1 (centres unmarked)	-7.35
COC(=O)c1cc(C2CC2)nc2c1c(C)nn2-c1ccccc1	7.86
O=C1CC2(O)CCC1(c1ccccc1)CC2	1.41
FC(F)(F)c1cccc(N2CCN(Cc3ccco3)CC2)c1	1.48

Structure (SMILES)	% Inhibition @ 10 uM [%]
O=C(NC1CCCc2ccccc21)C1CCN(S(=O)(=O)N2CCCCCC2)CC1 (centres unmarked)	0.955
O=C1CCCC(=O)C1=CNc1ccc(C(=O)NC2CCCCC2)cc1	-6.18
O=C(NCc1cccc(Cl)c1)C1CCN(c2nnc(N3CCCC3=O)s2)CC1	0.623
Cc1c(Cl)cccc1N(CC(=O)N1CCCCC1)S(C)(=O)=O	-1.04
CCOC(=O)C1=C(CN(C)Cc2ccccc2)NC(=O)NC1c1ccc(C)cc1 (centres unmarked)	-5.16
Cc1cccc(NC(=O)CN(c2ccc(F)cc2)S(C)(=O)=O)c1	3.24
Cc1cccc(CNC(=O)C(C)Nc2nn3c(=O)cc(C)nc3s2)c1 (centres unmarked)	1.38
O=C(CCN1C(=O)c2ccccc2C1=O)Nc1ccccc1C(=O)O	-1.99
CCOc1ccc(C(NC(=O)c2ccc(F)cc2)c2ccc(OC)c(OC)c2)cc1 (centres unmarked)	24.9
O=C(CSc1nncn2c1cc1occc12)NCc1ccco1	-0.232
COc1cccc(N2CCN(Cc3ccoc3)CC2)c1	-1.75
C=CC[n+]1ccc(COC(=O)Nc2cccc(C(F)(F)F)c2)cc1	5.9
Clc1cccc(N2CCN(C3CCCCCC3)CC2)c1	-0.0908
C=CCc1ccccc1OCc1cccc(C(=O)O)c1	-5.24
CC1=C(C(=O)Nc2cccnc2)C(c2ccc(C)cc2)n2nc(SCc3ccccc3)nc2N1 (centres unmarked)	5.11
CSc1ccc(/C=C2\N=C(c3ccco3)OC2=O)cc1	-1.51
CCCCCOc1ccc(C#N)c2ccccc12	-2.89
COc1cc(-c2cccn2C)c(OC)cc1-c1cccn1C	6.1
CN1CCC(N(C)Cc2ccc(C(F)(F)F)cc2)CC1	-2.56
CCOC(=O)/C(C#N)=C(\C)CCc1ccccc1	-4.06
Cc1cc(C)c2c(-n3cccc3)c(C(=O)N3CC(C)CC(C)C3)sc2n1 (centres unmarked)	3.87
Cc1oc2ncn(C)c(=O)c2c1C(=O)Nc1nc2ccccc2s1	7.46
CC1(C)Cc2c(sc3nc(SCC(=O)O)n(C4CCCCC4)c(=O)c23)CO1	-2.8
Cc1ccc2oc(=O)c3cnn(CC(=O)NCCc4ccc(S(N)(=O)=O)cc4)c3c2c1	-1.7
O=C(O)C1CC(=O)N(Cc2ccc3c(c2)OCO3)/C(=N/c2ccc(Cl)cc2)S1 (centres unmarked)	10.2

Structure (SMILES)	% Inhibition @ 10 uM [%]
CN(C)CCN(C)Cc1ccc(Br)s1	6.9
Cc1nn(CCC(=O)NCc2cccnc2)c(=O)c2nn(-c3ccccc3)c(C)c12	-7.74
COc1ccc(S(=O)(=O)NC2CC(C)(C)NC(C)(C)C2)cc1C	1.88
O=C(c1cc2n(n1)C(C(F)(F)F)CC(c1ccc(F)cc1)N2)N1CCOCC1 (centres unmarked)	0.687
COc1cc(O)ccc1C=O	0.66
CC1=C(C(=O)NCCc2ccc(S(N)(=O)=O)cc2)C2(CCCCC2)OC1=O	3.19
COc1ccccc1Cn1c(SCC(N)=O)nc2nccnc2c1=O	-4.37
CCOc1cc(C=O)ccc1OCCOc1cccc(C)c1	1.58
CC(/C=C1\N=C(c2ccc(F)cc2)OC1=O)=C\c1ccc2c(c1)OCO2	2.92
COc1ccc(-c2noc(CNC(=O)COc3ccc(C(C)(C)C)cc3Br)n2)cc1	-2.99
CCOc1ccccc1/C=C(\C#N)c1nc(-c2ccccc2)cs1	1.08
COC(=O)c1cc(S(=O)(=O)N2CCC(N3CCCCC3)CC2)c[nH]1	5.94
CC(C)=CCC/C(C)=C/CN1CCCN(C)CC1	-7.91
Cn1c(-c2nonc2NC(=O)CSc2nc3ccccc3o2)nc2ccccc21	-1.84
COc1ccc(N2C(=O)c3ccccc3NC2c2cc(OC)c(OC)c(OC)c2)cc1 (centres unmarked)	-2.85
COCc1cc(C)nc2sc(C(=O)c3ccc(Cl)cc3)c(N)c12	0.674
COc1cc2nc3c(O)n(CCN4CCN(Cc5ccccc5)CC4)cnc-3c2cc1OC	-7.27
CC1=C(C(=O)Nc2cc(C)ccn2)C(c2cccc(Cl)c2)C2=C(O)CCCC2=N1 (centres unmarked)	5.9
OCCC1CCCCN1Cc1cccc(Cl)c1 (centres unmarked)	-4.58
O=C(O)c1ncn(-c2ccccc2)n1	5.43
Cc1ccc(-c2ccccc2)c(Oc2ccc(C#N)c(C#N)c2)c1	-3.55
CCCOc1ccccc1C1C2=C(O)CCCC2=NC(C)=C1C(=O)OC (centres unmarked)	2.45
CCOc1cccc(C(=O)Nc2cnn(Cc3ccccc3)c2)c1	-1.32
O=C(NCc1ccccc1)C(Cc1ccccc1)N1C(=O)C2C3C=CC(C3)C2C1=O (centres unmarked)	2.54
CCOc1ccc2[nH]c(C(=O)O)c(CCN)c2c1	4.54

Structure (SMILES)	% Inhibition @ 10 uM [%]
CN1C(=O)NC(=O)/C(=C\c2c[nH]nc2-c2ccc(F)cc2)C1=O	-0.834
CC(C)C[C@H](NC(=O)c1ccc(CN)cc1)C(=O)N[C@@H](CCc1ccccc1)C(=O)COCc1ccccc1	-3.97
O=C(NCCc1csc2nc(-c3ccccc3)nn12)c1ccco1	-1.71
CC1(C)CC(=O)C2=C(C1)c1c(ccc3ccccc13)NC2c1cccc([N+](=O)[O-])c1 (centres unmarked)	3.06
Cc1ccc(CNC(=O)CN(Cc2ccccc2)S(C)(=O)=O)cc1	-1.92
CC1CN(c2nc3c(c(=O)n(Cc4ccccc4Cl)c(=O)n3C)n2C)CC(C)O1 (centres unmarked)	-3.47
CN(CCCNC(=O)c1cc2c(s1)-c1ccccc1OC2)Cc1ccccc1	0.291
Cc1ccc(-c2cn3c(n2)sc2cc(C(=O)N4CCC(C(N)=O)CC4)ccc23)cc1	-0.901
Cc1cccc(-c2cc(C(=O)Nc3nc(C)c(C(=O)N(C)C)s3)c3ccccc3n2)c1	-2.9
Cc1cc(C(=O)NCc2cccs2)c2c(C)nn(-c3ccccc3Cl)c2n1	3.75
Cc1cccc(NC(=O)c2ccc(COc3cccc4ccccc34)o2)n1	0.413
N#CC1=C(N)Oc2[nH]nc(-c3cccs3)c2C1c1ccncc1 (centres unmarked)	3.92
Cc1c(Cl)cccc1-n1nc(C)c2c(C(=O)O)cc(C3CC3)nc21	6.65
CCC(C)NC(=O)COc1ccc(Br)cc1C (centres unmarked)	-3.83
CCN1C=C(Cc2ccccc2C)C2=C(C1)C(c1ccccc1C)C(C#N)=C(N)O2 (centres unmarked)	2.32
COCCO/C(O)=C1\C(C)=NC2=C(C(=O)CCC2)C1c1ccc(OCc2ccccc2)c(OC)c1 (centres unmarked)	-0.769
COc1ccc(C(=O)N[C@@H](Cc2ccc([N+](=O)[O-])cc2)C(=O)NCC#N)cc1	-5.64
COc1ccc(-c2noc(CN(C(=O)CC(C)(C)C)C(C)C)n2)cc1	-8.22
CCc1cccc(C(=O)N[C@@H](CC(C)C)C(=O)NCC#N)c1	3.19
CC(C)(C)/N=C/c1cc(-c2ccccc2)sc1S	24.6
CC1CN(C(=O)Cn2cc(SCC(=O)NCc3ccccc3Cl)c3ccccc32)CC(C)O1 (centres unmarked)	-1.11
CCCN1C(=O)S/C(=C\c2cccc(OC)c2OC(C)C)C1=O	1.28
COc1ccc(-c2cn3ccccc3n2)cc1Br	3.8

Source: paper PMC6919601, “Identification of Plasmodium dipeptidyl aminopeptidase allosteric inhibitors by high throughput screening” (PLoS ONE, 2019)
